{"source": "paper PMC9911399", "about": "“Two distinct binding modes provide the RNA-binding protein RbFox with extraordinary sequence specificity”", "binders": {"B1": {"name": "AUGAUAU (DNA:RNA)", "RNA": "GGGAGACCGGAAUUCAGAUUGUCCAUGAUAUUUAAAUCCCGUCGUAGCCACCA", "DNA 1": "CAATCTGAATTCCGGTCTCCC", "DNA 2": "TGGTGGCTACGACGGGATT"}, "B2": {"name": "UUCCAAG (DNA:RNA)", "RNA": "B1 RNA with A25U, G27C, A28C, U29A, U31G", "DNA 1": "CAATCTGAATTCCGGTCTCCC", "DNA 2": "TGGTGGCTACGACGGGATT"}, "B3": {"name": "AGCAGCA (DNA:RNA)", "RNA": "B1 RNA with U26G, G27C, U29G, A30C, U31A", "DNA 1": "CAATCTGAATTCCGGTCTCCC", "DNA 2": "TGGTGGCTACGACGGGATT"}, "B4": {"name": "UGCCUGC (DNA:RNA)", "RNA": "B1 RNA with A25U, U26G, G27C, A28C, A30G, U31C", "DNA 1": "CAATCTGAATTCCGGTCTCCC", "DNA 2": "TGGTGGCTACGACGGGATT"}, "B5": {"name": "UGAAGUU (DNA:RNA)", "RNA": "B1 RNA with A25U, U26G, G27A, U29G, A30U", "DNA 1": "CAATCTGAATTCCGGTCTCCC", "DNA 2": "TGGTGGCTACGACGGGATT"}, "B6": {"name": "CACCACU (DNA:RNA)", "RNA": "B1 RNA with A25C, U26A, G27C, A28C, U29A, A30C", "DNA 1": "CAATCTGAATTCCGGTCTCCC", "DNA 2": "TGGTGGCTACGACGGGATT"}, "B7": {"name": "CCCGAGU (DNA:RNA)", "RNA": "B1 RNA with A25C, U26C, G27C, A28G, U29A, A30G", "DNA 1": "CAATCTGAATTCCGGTCTCCC", "DNA 2": "TGGTGGCTACGACGGGATT"}, "B8": {"name": "CUGCUGC (DNA:RNA)", "RNA": "B1 RNA with A25C, A28C, A30G, U31C", "DNA 1": "CAATCTGAATTCCGGTCTCCC", "DNA 2": "TGGTGGCTACGACGGGATT"}, "B9": {"name": "CUGGGGA (DNA:RNA)", "RNA": "B1 RNA with A25C, A28G, U29G, A30G, U31A", "DNA 1": "CAATCTGAATTCCGGTCTCCC", "DNA 2": "TGGTGGCTACGACGGGATT"}, "B10": {"name": "UAAUCUA (DNA:RNA)", "RNA": "GGGAGACCGGAAUUCAGAUUGUCCUAAUCUAUUAAAUCCCGUCGUAGCCACCA", "DNA 1": "CAATCTGAATTCCGGTCTCCC", "DNA 2": "TGGTGGCTACGACGGGATT"}, "B11": {"name": "CAUCAGA (DNA:RNA)", "RNA": "B10 RNA with U25C, A27U, U28C, C29A, U30G", "DNA 1": "CAATCTGAATTCCGGTCTCCC", "DNA 2": "TGGTGGCTACGACGGGATT"}, "B12": {"name": "GGUGCAG (DNA:RNA)", "RNA": "B1 RNA with A25G, U26G, G27U, A28G, U29C, U31G", "DNA 1": "CAATCTGAATTCCGGTCTCCC", "DNA 2": "TGGTGGCTACGACGGGATT"}, "B13": {"name": "CGGAGAA (DNA:RNA)", "RNA": "B1 RNA with A25C, U26G, U29G, U31A", "DNA 1": "CAATCTGAATTCCGGTCTCCC", "DNA 2": "TGGTGGCTACGACGGGATT"}, "B14": {"name": "ACCUGUC (DNA:RNA)", "RNA": "B10 RNA with U25A, A26C, A27C, C29G, A31C", "DNA 1": "CAATCTGAATTCCGGTCTCCC", "DNA 2": "TGGTGGCTACGACGGGATT"}, "B15": {"name": "CAUAUGG (DNA:RNA)", "RNA": "B1 RNA with A25C, U26A, G27U, A30G, U31G", "DNA 1": "CAATCTGAATTCCGGTCTCCC", "DNA 2": "TGGTGGCTACGACGGGATT"}, "B16": {"name": "AGACAAC (DNA:RNA)", "RNA": "B1 RNA with U26G, G27A, A28C, U29A, U31C", "DNA 1": "CAATCTGAATTCCGGTCTCCC", "DNA 2": "TGGTGGCTACGACGGGATT"}, "B17": {"name": "UCAGUCC (DNA:RNA)", "RNA": "B10 RNA with A26C, U28G, C29U, U30C, A31C", "DNA 1": "CAATCTGAATTCCGGTCTCCC", "DNA 2": "TGGTGGCTACGACGGGATT"}, "B18": {"name": "GAAUUUC (DNA:RNA)", "RNA": "B10 RNA with U25G, C29U, A31C", "DNA 1": "CAATCTGAATTCCGGTCTCCC", "DNA 2": "TGGTGGCTACGACGGGATT"}, "B19": {"name": "GUCCGAA (DNA:RNA)", "RNA": "B1 RNA with A25G, G27C, A28C, U29G, U31A", "DNA 1": "CAATCTGAATTCCGGTCTCCC", "DNA 2": "TGGTGGCTACGACGGGATT"}, "B20": {"name": "CGCCUUA (DNA:RNA)", "RNA": "B10 RNA with U25C, A26G, A27C, U28C, C29U", "DNA 1": "CAATCTGAATTCCGGTCTCCC", "DNA 2": "TGGTGGCTACGACGGGATT"}, "B21": {"name": "CGAGUCA (DNA:RNA)", "RNA": "B10 RNA with U25C, A26G, U28G, C29U, U30C", "DNA 1": "CAATCTGAATTCCGGTCTCCC", "DNA 2": "TGGTGGCTACGACGGGATT"}, "B22": {"name": "CAUCCUA (DNA:RNA)", "RNA": "B10 RNA with U25C, A27U, U28C", "DNA 1": "CAATCTGAATTCCGGTCTCCC", "DNA 2": "TGGTGGCTACGACGGGATT"}, "B23": {"name": "CCGACCG (DNA:RNA)", "RNA": "B1 RNA with A25C, U26C, U29C, A30C, U31G", "DNA 1": "CAATCTGAATTCCGGTCTCCC", "DNA 2": "TGGTGGCTACGACGGGATT"}, "B24": {"name": "AGAACAA (DNA:RNA)", "RNA": "B1 RNA with U26G, G27A, U29C, U31A", "DNA 1": "CAATCTGAATTCCGGTCTCCC", "DNA 2": "TGGTGGCTACGACGGGATT"}, "B25": {"name": "CGGGGUG (DNA:RNA)", "RNA": "B1 RNA with A25C, U26G, A28G, U29G, A30U, U31G", "DNA 1": "CAATCTGAATTCCGGTCTCCC", "DNA 2": "TGGTGGCTACGACGGGATT"}, "B26": {"name": "CGUACCG (DNA:RNA)", "RNA": "B1 RNA with A25C, U26G, G27U, U29C, A30C, U31G", "DNA 1": "CAATCTGAATTCCGGTCTCCC", "DNA 2": "TGGTGGCTACGACGGGATT"}, "B27": {"name": "AGGCUUU (DNA:RNA)", "RNA": "B1 RNA with U26G, A28C, A30U", "DNA 1": "CAATCTGAATTCCGGTCTCCC", "DNA 2": "TGGTGGCTACGACGGGATT"}, "B28": {"name": "CAGCCUU (DNA:RNA)", "RNA": "B10 RNA with U25C, A27G, U28C, A31U", "DNA 1": "CAATCTGAATTCCGGTCTCCC", "DNA 2": "TGGTGGCTACGACGGGATT"}, "B29": {"name": "GUGGAGA (DNA:RNA)", "RNA": "B1 RNA with A25G, A28G, U29A, A30G, U31A", "DNA 1": "CAATCTGAATTCCGGTCTCCC", "DNA 2": "TGGTGGCTACGACGGGATT"}, "B30": {"name": "ACUACCA (DNA:RNA)", "RNA": "B1 RNA with U26C, G27U, U29C, A30C, U31A", "DNA 1": "CAATCTGAATTCCGGTCTCCC", "DNA 2": "TGGTGGCTACGACGGGATT"}, "B31": {"name": "UAUCGAA (DNA:RNA)", "RNA": "B10 RNA with A27U, U28C, C29G, U30A", "DNA 1": "CAATCTGAATTCCGGTCTCCC", "DNA 2": "TGGTGGCTACGACGGGATT"}}, "note": "Positions count from the first letter of the chain named. Some of the results follow.", "data": [{"molecular_target": "T1, RBFOX1 RRM (Homo sapiens, UniProt Q9NWB1 109-208)", "T1 sequence": "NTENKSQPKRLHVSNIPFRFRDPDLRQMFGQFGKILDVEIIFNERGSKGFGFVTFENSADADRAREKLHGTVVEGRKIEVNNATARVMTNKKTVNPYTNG", "assay": "EMSA; HiTS-Eq, 1 nM pool, 10 min; buffer printed only for the single-RNA assays: 10 mM Tris pH 7.5, 150 mM NaCl, 3.4 mM EDTA, 0.001% NP-40, 30 C", "details": "tags: His6 N-terminal (pET28a); label: 5' 32P", "outline": "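These values rest on relative association constants, computed from read-count changes of each RNA species versus the control reaction and normalised to the cognate motif. Reads came from free RNA recovered by 8% native PAGE after purified RbFox RRM (wild type or mutant) at increasing concentrations was equilibrated for 10 min in 50 µL with 1 nM of a 5′-radiolabelled pool with 7 randomized nucleotides and DNA-annealed flanks.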", "values": [{"binder": "B1", "binding signal": "0.00519 KA relative to UGCAUGU"}, {"binder": "B2", "binding signal": "0.00251 KA relative to UGCAUGU"}, {"binder": "B3", "binding signal": "0.00978 KA relative to UGCAUGU"}, {"binder": "B4", "binding signal": "0.0698 KA relative to UGCAUGU"}, {"binder": "B5", "binding signal": "0.018 KA relative to UGCAUGU"}, {"binder": "B6", "binding signal": "0.000304 KA relative to UGCAUGU"}, {"binder": "B7", "binding signal": "0.00379 KA relative to UGCAUGU"}, {"binder": "B8", "binding signal": "0.0217 KA relative to UGCAUGU"}, {"binder": "B9", "binding signal": "0.00858 KA relative to UGCAUGU"}, {"binder": "B10", "binding signal": "0.0051 KA relative to UGCAUGU"}, {"binder": "B11", "binding signal": "0.00203 KA relative to UGCAUGU"}, {"binder": "B12", "binding signal": "0.0183 KA relative to UGCAUGU"}, {"binder": "B13", "binding signal": "0.0182 KA relative to UGCAUGU"}, {"binder": "B14", "binding signal": "0.00766 KA relative to UGCAUGU"}, {"binder": "B15", "binding signal": "0.0076 KA relative to UGCAUGU"}, {"binder": "B16", "binding signal": "0.00477 KA relative to UGCAUGU"}, {"binder": "B17", "binding signal": "0.00901 KA relative to UGCAUGU"}, {"binder": "B18", "binding signal": "0.0113 KA relative to UGCAUGU"}, {"binder": "B19", "binding signal": "0.0139 KA relative to UGCAUGU"}, {"binder": "B20", "binding signal": "0.00453 KA relative to UGCAUGU"}, {"binder": "B21", "binding signal": "0.0088 KA relative to UGCAUGU"}, {"binder": "B22", "binding signal": "0.00216 KA relative to UGCAUGU"}, {"binder": "B23", "binding signal": "0.01 KA relative to UGCAUGU"}, {"binder": "B24", "binding signal": "0.00126 KA relative to UGCAUGU"}, {"binder": "B25", "binding signal": "0.0399 KA relative to UGCAUGU"}, {"binder": "B26", "binding signal": "0.00274 KA relative to UGCAUGU"}, {"binder": "B27", "binding signal": "0.0128 KA relative to UGCAUGU"}, {"binder": "B28", "binding signal": "0.00524 KA relative to UGCAUGU"}, {"binder": "B29", "binding signal": "0.0173 KA relative to UGCAUGU"}, {"binder": "B30", "binding signal": "0.00339 KA relative to UGCAUGU"}, {"binder": "B31", "binding signal": "0.0125 KA relative to UGCAUGU"}]}]}
